Experimental data published in the supplement of paper PMC10126150.
Sequences with one replicate were seen in a single cluster, so their values are uncertain.

Test system: ATP
Test: switch fluorescence ratio, 500 uM ATP over buffer (Cy3 cluster intensity, sum of 5 cycles each) (fold (ratio)); higher = stronger signal-on switching upon ATP binding; sequences stand for … in TCGTCGGCAGCGTCAGATGTGTATAAGAGACAGTTTTTTTTTTTTTTTTTTTTTTTTT…TC
Details: aptamer strand: ATP DNA aptamer (quencher-CACCTGGGGGAGTATTGCGGAGGAAGG + anchor), 100 nM annealed; ATP concentration: 500 uM; one replicate
How it was run: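 Clusters carrying Cy3-labelled switching strands on a modified Illumina MiSeq flow-cell were annealed to 100 nM quencher-labelled ATP aptamer and imaged in selection buffer. They were imaged again after 15 min with 500 uM ATP at 22 °C, over five buffer/ATP cycles with NaOH stripping and re-annealing in between. For each cluster, the fluorescence ratio is the summed Cy3 intensity of the target cycles divided by that of the buffer cycles, averaged per switch-domain sequence. Clusters outside 100-1000 RFU were left out.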
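Note: ATP exposure 15 min at 22 °C before imaging.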

Which switch fluorescence ratio does the source give for ATGACGTGGT here?
The switch fluorescence ratio was 1.

How did the switch fluorescence ratio turn out when ATGACTGGCC was run?
Its switch fluorescence ratio is 1.01.

ATGACTTGG was tested. Which switch fluorescence ratio did it give?
Its switch fluorescence ratio is 0.95.

How did the switch fluorescence ratio turn out when ATGAGAAACT was run?
Its switch fluorescence ratio is 1.

ATGAGATTCT was tested. Which switch fluorescence ratio did it give?
Its switch fluorescence ratio is 1.01.

With ATGAGCCTAT as the sequence, how does the switch fluorescence ratio read?
Its switch fluorescence ratio is 0.966.

ATGAGCGTGT was tested. Which switch fluorescence ratio did it give?
Its switch fluorescence ratio is 0.994.

ATGAGGAGAG was tested. Which switch fluorescence ratio did it give?
Its switch fluorescence ratio is 1.01.

ATGAGGATG was tested. Which switch fluorescence ratio did it give?
Its switch fluorescence ratio is 0.978.

ATGAGGGATA was tested. Which switch fluorescence ratio did it give?
The switch fluorescence ratio was 1.05.

ATGAGTAGGC was tested. Which switch fluorescence ratio did it give?
Its switch fluorescence ratio is 1.13.

For ATGATAAC, which switch fluorescence ratio is on record?
The switch fluorescence ratio was 1.01.

How did the switch fluorescence ratio turn out when ATGATACAGA was run?
Its switch fluorescence ratio is 1.08.

With ATGATACATG as the sequence, how does the switch fluorescence ratio read?
The switch fluorescence ratio was 1.

Which switch fluorescence ratio does the source give for ATGATACCGC here?
The switch fluorescence ratio was 1.39.

Which switch fluorescence ratio does the source give for ATGATCCGC here?
Its switch fluorescence ratio is 1.7.

For ATGATCTCCT, which switch fluorescence ratio is on record?
Its switch fluorescence ratio is 0.978.

How did the switch fluorescence ratio turn out when ATGATGCCCC was run?
The switch fluorescence ratio was 1.04.

Which switch fluorescence ratio does the source give for ATGATGGCGC here?
The switch fluorescence ratio was 1.02.

For ATGATGGCGG, which switch fluorescence ratio is on record?
The switch fluorescence ratio was 1.01.

For ATGATGGCTC, which switch fluorescence ratio is on record?
The switch fluorescence ratio was 1.

For ATGATGGTAG, which switch fluorescence ratio is on record?
The switch fluorescence ratio was 1.02.

How did the switch fluorescence ratio turn out when ATGATGGTGC was run?
Its switch fluorescence ratio is 1.13.

Which switch fluorescence ratio does the source give for ATGATTATTC here?
The switch fluorescence ratio was 0.961.

How did the switch fluorescence ratio turn out when ATGATTCGAC was run?
The switch fluorescence ratio was 1.01.

How did the switch fluorescence ratio turn out when ATGATTCTAT was run?
The switch fluorescence ratio was 0.964.

With ATGCAACGGG as the sequence, how does the switch fluorescence ratio read?
Its switch fluorescence ratio is 1.03.

For ATGCAAGGTA, which switch fluorescence ratio is on record?
The switch fluorescence ratio was 0.998.

For ATGCAAGTTG, which switch fluorescence ratio is on record?
The switch fluorescence ratio was 1.

ATGCAATGCG was tested. Which switch fluorescence ratio did it give?
The switch fluorescence ratio was 1.63.

For ATGCACGAAT, which switch fluorescence ratio is on record?
Its switch fluorescence ratio is 1.02.

ATGCACTCCA was tested. Which switch fluorescence ratio did it give?
The switch fluorescence ratio was 1.11.

ATGCACTCCG was tested. Which switch fluorescence ratio did it give?
The switch fluorescence ratio was 1.23.

With ATGCAGAAAG as the sequence, how does the switch fluorescence ratio read?
Its switch fluorescence ratio is 0.998.

Which switch fluorescence ratio does the source give for ATGCAGATTG here?
The switch fluorescence ratio was 1.01.

With ATGCAGCCAA as the sequence, how does the switch fluorescence ratio read?
Its switch fluorescence ratio is 1.24.

With ATGCAGCGC as the sequence, how does the switch fluorescence ratio read?
The switch fluorescence ratio was 0.965.

For ATGCATTACG, which switch fluorescence ratio is on record?
Its switch fluorescence ratio is 1.1.

With ATGCATTGAA as the sequence, how does the switch fluorescence ratio read?
The switch fluorescence ratio was 0.981.

With ATGCATTTG as the sequence, how does the switch fluorescence ratio read?
The switch fluorescence ratio was 1.07.

With ATGCCACTAC as the sequence, how does the switch fluorescence ratio read?
The switch fluorescence ratio was 1.14.

With ATGCCACTGA as the sequence, how does the switch fluorescence ratio read?
Its switch fluorescence ratio is 1.01.

For ATGCCCGTCA, which switch fluorescence ratio is on record?
The switch fluorescence ratio was 1.08.

ATGCCGCAGC was tested. Which switch fluorescence ratio did it give?
Its switch fluorescence ratio is 1.14.

For ATGCCGCCGC, which switch fluorescence ratio is on record?
Its switch fluorescence ratio is 1.04.

ATGCCGGCTG was tested. Which switch fluorescence ratio did it give?
The switch fluorescence ratio was 1.04.

Which switch fluorescence ratio does the source give for ATGCCTGAG here?
The switch fluorescence ratio was 1.07.

How did the switch fluorescence ratio turn out when ATGCGATGCG was run?
Its switch fluorescence ratio is 1.05.

ATGCGCCGCT was tested. Which switch fluorescence ratio did it give?
Its switch fluorescence ratio is 1.

Which switch fluorescence ratio does the source give for ATGCGCGGAC here?
The switch fluorescence ratio was 1.51.

How did the switch fluorescence ratio turn out when ATGCGGGCTT was run?
Its switch fluorescence ratio is 1.04.

Which switch fluorescence ratio does the source give for ATGCGGGGCC here?
The switch fluorescence ratio was 0.934.

ATGCGGGGG was tested. Which switch fluorescence ratio did it give?
Its switch fluorescence ratio is 0.916.

With ATGCGTAGGC as the sequence, how does the switch fluorescence ratio read?
Its switch fluorescence ratio is 0.982.

ATGCGTCGAT was tested. Which switch fluorescence ratio did it give?
The switch fluorescence ratio was 1.01.

Which switch fluorescence ratio does the source give for ATGCGTTGAA here?
Its switch fluorescence ratio is 0.996.

With ATGCTAGATC as the sequence, how does the switch fluorescence ratio read?
The switch fluorescence ratio was 1.21.

ATGCTCAAGC was tested. Which switch fluorescence ratio did it give?
Its switch fluorescence ratio is 1.05.

Which switch fluorescence ratio does the source give for ATGCTCAGCG here?
The switch fluorescence ratio was 1.01.

ATGCTCGTGC was tested. Which switch fluorescence ratio did it give?
The switch fluorescence ratio was 0.934.

With ATGCTCTGGT as the sequence, how does the switch fluorescence ratio read?
The switch fluorescence ratio was 0.95.

ATGCTGGTA was tested. Which switch fluorescence ratio did it give?
Its switch fluorescence ratio is 0.949.

For ATGCTGTC, which switch fluorescence ratio is on record?
The switch fluorescence ratio was 1.1.

ATGCTTGATG was tested. Which switch fluorescence ratio did it give?
The switch fluorescence ratio was 0.997.

How did the switch fluorescence ratio turn out when ATGCTTGGCT was run?
The switch fluorescence ratio was 0.931.

With ATGCTTTGCG as the sequence, how does the switch fluorescence ratio read?
Its switch fluorescence ratio is 1.01.

With ATGGACAGCT as the sequence, how does the switch fluorescence ratio read?
Its switch fluorescence ratio is 1.08.

Which switch fluorescence ratio does the source give for ATGGACAGGA here?
The switch fluorescence ratio was 0.993.

Which switch fluorescence ratio does the source give for ATGGACTGCT here?
Its switch fluorescence ratio is 1.

ATGGAGATG was tested. Which switch fluorescence ratio did it give?
The switch fluorescence ratio was 0.991.

ATGGAGGAG was tested. Which switch fluorescence ratio did it give?
The switch fluorescence ratio was 0.999.

For ATGGATCAGA, which switch fluorescence ratio is on record?
Its switch fluorescence ratio is 0.969.

How did the switch fluorescence ratio turn out when ATGGCGTC was run?
Its switch fluorescence ratio is 0.984.

ATGGCTGCAA was tested. Which switch fluorescence ratio did it give?
Its switch fluorescence ratio is 1.56.

Which switch fluorescence ratio does the source give for ATGGGAACGT here?
Its switch fluorescence ratio is 0.951.

ATGGGGATAT was tested. Which switch fluorescence ratio did it give?
The switch fluorescence ratio was 0.973.

For ATGGGGCAAG, which switch fluorescence ratio is on record?
Its switch fluorescence ratio is 1.01.

With ATGGGTTCCG as the sequence, how does the switch fluorescence ratio read?
Its switch fluorescence ratio is 1.04.

How did the switch fluorescence ratio turn out when ATGGTAAAGG was run?
Its switch fluorescence ratio is 0.991.

Which switch fluorescence ratio does the source give for ATGGTACCAG here?
The switch fluorescence ratio was 1.03.

ATGGTCCTTG was tested. Which switch fluorescence ratio did it give?
The switch fluorescence ratio was 0.981.

For ATGGTCGTGG, which switch fluorescence ratio is on record?
The switch fluorescence ratio was 1.05.

With ATGGTCTGAG as the sequence, how does the switch fluorescence ratio read?
Its switch fluorescence ratio is 0.988.

How did the switch fluorescence ratio turn out when ATGGTGAGTA was run?
The switch fluorescence ratio was 1.12.

ATGGTGCAAC was tested. Which switch fluorescence ratio did it give?
The switch fluorescence ratio was 1.01.

For ATGGTGCCGC, which switch fluorescence ratio is on record?
The switch fluorescence ratio was 0.958.

With ATGGTGGGAT as the sequence, how does the switch fluorescence ratio read?
Its switch fluorescence ratio is 0.976.

How did the switch fluorescence ratio turn out when ATGGTGGTCA was run?
The switch fluorescence ratio was 1.02.

With ATGGTTCGTC as the sequence, how does the switch fluorescence ratio read?
Its switch fluorescence ratio is 1.03.

For ATGGTTTGCT, which switch fluorescence ratio is on record?
The switch fluorescence ratio was 0.996.

Which switch fluorescence ratio does the source give for ATGGTTTTCC here?
The switch fluorescence ratio was 1.01.

For ATGTAAAAGC, which switch fluorescence ratio is on record?
The switch fluorescence ratio was 1.16.

For ATGTAATGAA, which switch fluorescence ratio is on record?
The switch fluorescence ratio was 0.974.

Which switch fluorescence ratio does the source give for ATGTACTAAA here?
The switch fluorescence ratio was 1.08.

Which switch fluorescence ratio does the source give for ATGTACTAGA here?
The switch fluorescence ratio was 1.04.

How did the switch fluorescence ratio turn out when ATGTACTATG was run?
The switch fluorescence ratio was 1.06.

How did the switch fluorescence ratio turn out when ATGTACTGAC was run?
Its switch fluorescence ratio is 1.31.

Which switch fluorescence ratio does the source give for ATGTAGTATT here?
The switch fluorescence ratio was 0.961.

Which switch fluorescence ratio does the source give for ATGTATGGG here?
Its switch fluorescence ratio is 1.01.

With ATGTCACAAT as the sequence, how does the switch fluorescence ratio read?
Its switch fluorescence ratio is 1.03.
